Values joined by “and” are separate entries in the source; they are usually repeats but may differ in a detail not shown here. Equal entries are not always repeated.
B1: LFV-C Recombinant receptor molecule (Fc fusion)
chain: SPFIASVSDQHGVVYITENKNKTVVIPCLGSISNLNVSLCARYPEKRFVPDGNRISWDSKKGFTIPSYMISYAGMVFCEAKINDESYQSIMYIVVVVGYRIYDVVLSPSHGIELSVGEKLVLNCTARTELNVGIDFNWEYPSSKHQHKKLVNRDLKTQSGSEMKKFLSTLTIDGVTRSDQGLYTCAASSGLMTKKNSTFVRVHEKGPG[here human IgG1 Fc without letters]
B2: LFV-B Recombinant receptor molecule (Fc fusion)
chain: YVQDYRSPFIASVSDQHGVVYITENKNKTVVIPCLGSISNLNVSLCARYPEKRFVPDGNRISWDSKKGFTIPSYMISYAGMVFCEAKINDESYQSIMYIVVVVGYRIYDVVLSPSHGIELSVGEKLVLNCTARTELNVGIDFNWEYPSSKHQHKKLVNRDLKTQSGSEMKKFLSTLTIDGVTRSDQGLYTCAASSGLMTKKNSTFVRVHEKGPG[here human IgG1 Fc without letters]
notes: expressed in HEK293 or CHO cells

What was measured:
[1] = biological target: T1, VEGF-C (UniProt P49767 112-227, limits assumed); experiment: blocking ELISA, VEGF-C to VEGFR2 (Example 13)
T1 construct: Bought reagent
T1 sequence (looked up): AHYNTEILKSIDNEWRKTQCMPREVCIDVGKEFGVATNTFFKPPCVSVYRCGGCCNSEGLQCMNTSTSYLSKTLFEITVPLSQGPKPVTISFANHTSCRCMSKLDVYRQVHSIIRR

[2] = biological target: T2, VEGF-D (UniProt O43915 89-205, limits assumed); experiment: ELISA binding to VEGF-D, OD450
T2 construct: Bought reagent
T2 sequence (looked up): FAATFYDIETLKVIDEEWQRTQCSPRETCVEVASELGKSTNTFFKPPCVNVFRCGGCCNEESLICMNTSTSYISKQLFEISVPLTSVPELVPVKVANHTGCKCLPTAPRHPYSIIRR

[3] = biological target: T3, VEGF-A165 (UniProt P15692-4 27-191); experiment: blocking ELISA, VEGF-A 165-His to coated VEGFR2-Fc; row head prints uM, paragraph 129 and ng/ml row give nM
T3 construct: Bought reagent
T3 sequence (looked up): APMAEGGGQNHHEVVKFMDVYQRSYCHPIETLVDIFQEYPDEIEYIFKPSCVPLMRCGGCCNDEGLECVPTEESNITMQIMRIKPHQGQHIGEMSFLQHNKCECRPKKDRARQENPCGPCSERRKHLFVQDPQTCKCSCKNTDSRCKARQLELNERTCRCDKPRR

[4] = biological target: T4, VEGF-A 121 (UniProt P15692-9 27-147); experiment: blocking ELISA, VEGF-A 121-His to coated VEGFR2-Fc
T4 construct: Bought reagent
T4 sequence (looked up): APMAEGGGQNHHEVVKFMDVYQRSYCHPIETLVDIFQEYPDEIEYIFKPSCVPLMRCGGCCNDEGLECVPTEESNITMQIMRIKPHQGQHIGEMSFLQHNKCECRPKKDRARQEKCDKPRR

[5] = biological target: T2, VEGF-D; experiment: blocking ELISA, VEGF-D to VEGFR2 (Example 13)
[6] = biological target: T2, VEGF-D; experiment: blocking ELISA, VEGF-D-His to coated VEGFR3-Fc
Procedure: (§1) During the blocking period, each recombinant receptor molecule was serially diluted from high to low concentrations, mixed evenly with 10 ng/well of VEGF-C or 500 ng/well of VEGF-D (both labeled with His-tag), allowing for incubation at room temperature for 30 minutes. […] The plates were washed with PBST, then TMB was added for color development, terminated with 5% hydrochloric acid solution, and finally, the OD values at 450 nm were read using a microplate reader.

[7] = biological target: T1, VEGF-C; experiment: blocking ELISA, VEGF-C-His to coated VEGFR2-Fc
Procedure: as §1, with “100” for “10”, “or” for “or 500 ng/well of”, “then anti-polyhistidine secondary antibody conjugated with horseradish peroxidase was added to allow for incubation and binding at room temperature for 1 hour. Then the plates were washed with PBST,” for “then”

[8] = biological target: T2, VEGF-D; experiment: blocking ELISA, VEGF-D-His to coated VEGFR2-Fc
Procedure: as §1, with “100” for “10”, “or” for “or 500 ng/well of”, “then anti-polyhistidine secondary antibody conjugated with horseradish peroxidase was added to allow for incubation and binding at room temperature for 1 hour. Then the plates were washed with PBST,” for “then”

[9] = biological target: T1, VEGF-C; experiment: ELISA, coated VEGF-C, anti-human Fc-HRP
[10] = biological target: T1, VEGF-C; experiment: ELISA binding to VEGF-C, absorbance 450 nm
[11] = biological target: T3, VEGF-A165; experiment: blocking ELISA, VEGF-A 165-His to coated VEGFR2-Fc
[12] = biological target: T2, VEGF-D; experiment: blocking ELISA, VEGF-D to VEGFR3 (Example 13)
[13] = biological target: T3, VEGF-A165; experiment: ELISA binding to VEGF-A165, absorbance 450 nm
[14] = biological target: T4, VEGF-A 121; experiment: ELISA, coated VEGF-A 121, anti-human Fc-HRP
[15] = biological target: T2, VEGF-D; experiment: blocking ELISA, VEGF-D-His to coated VEGFR2-Fc; row head prints uM, ng/ml row implies nM
Procedure: as §1, with “100” for “10”, “or” for “or 500 ng/well of”, “then anti-polyhistidine secondary antibody conjugated with horseradish peroxidase was added to allow for incubation and binding at room temperature for 1 hour. Then the plates were washed with PBST,” for “then”

[16] = biological target: T3, VEGF-A165; experiment: blocking ELISA, VEGF-A165 to VEGFR2 (Example 13)
[17] = biological target: T1, VEGF-C; experiment: blocking ELISA, VEGF-C-His to coated VEGFR3-Fc; row head prints uM, ng/ml row implies nM
Procedure: as §1

[18] = biological target: T1, VEGF-C; experiment: blocking ELISA, VEGF-C-His to coated VEGFR3-Fc
Procedure: as §1

[19] = biological target: T5, PDGF-AA (UniProt P04085 87-211); experiment: SPR, PDGF coupled to CM5 chip, trap in flow
T5 construct: Bought reagent
Source text: (§2) Nevertheless, it was found in the preliminary detection experiments that PDGF family molecules (purchased from R&D Systems Inc.) were prone to produce non-specific binding in the chip, resulting in a pseudo-elevation in measured values, such that the detection could not be completed. Therefore, PDGF-AA, PDGF-AB, PDGF-BB and PDGF-CC molecules were separately loaded through a coupling reaction on a CM5 chip, followed by influx of the recombinant receptor molecules, thus effectively eliminating the impact of non-specific binding on affinity determination.

[20] = biological target: T6, PDGF-AB (UniProt P04085 87-211; P01127 82-190); experiment: SPR, PDGF coupled to CM5 chip, trap in flow
T6 construct: Bought reagent
Source text: as §2

[21] = biological target: T7, PDGF-CC (UniProt Q9NRA1 235-345); experiment: SPR, PDGF coupled to CM5 chip, trap in flow
T7 construct: Bought reagent
Source text: as §2

[22] = biological target: T8, PDGF-BB (UniProt P01127 82-190); experiment: SPR, PDGF coupled to CM5 chip, trap in flow; row label printed PDGF-BR
T8 construct: Bought reagent
Source text: as §2

[23] = biological target: T3, VEGF-A165; experiment: ELISA, coated VEGF-A 165, anti-human Fc-HRP
[24] = biological target: T1, VEGF-C; experiment: SPR Biacore T200, trap captured on Protein A chip, antigen in flow
[25] = biological target: T2, VEGF-D; experiment: as above
[26] = biological target: T9, VEGF-A (isoform not given) (UniProt P15692-4 27-191, limits assumed); experiment: as above
T9 construct: May be the same reagent as VEGF-A165
T9 sequence (looked up): T3 sequence (looked up)

[27] = biological target: T1, VEGF-C; experiment: blocking ELISA: His-VEGF-C premixed with sample, binding to coated VEGFR2-Fc read with anti-His-HRP
Procedure: as §1, with “100” for “10”, “or” for “or 500 ng/well of”, “then anti-polyhistidine secondary antibody conjugated with horseradish peroxidase was added to allow for incubation and binding at room temperature for 1 hour. Then the plates were washed with PBST,” for “then”

[28] = biological target: T2, VEGF-D; experiment: blocking ELISA: His-VEGF-D premixed with sample, binding to coated VEGFR2-Fc read with anti-His-HRP
Procedure: as §1, with “100” for “10”, “or” for “or 500 ng/well of”, “then anti-polyhistidine secondary antibody conjugated with horseradish peroxidase was added to allow for incubation and binding at room temperature for 1 hour. Then the plates were washed with PBST,” for “then”

[29] = biological target: T3, VEGF-A165; experiment: blocking ELISA: His-VEGF-A165 premixed with sample, binding to coated VEGFR2-Fc read with anti-His-HRP

T7 sequence (Q9NRA1 235-345): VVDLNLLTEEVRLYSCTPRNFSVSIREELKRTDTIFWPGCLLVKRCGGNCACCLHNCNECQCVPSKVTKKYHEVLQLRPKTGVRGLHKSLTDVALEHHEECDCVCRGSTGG

Binder | EC50 [2] [nM] | EC50 [3] [nM] | EC50 [4] | EC50 [6] | EC50 [7] | EC50 [8] [µg/mL] | EC50 [9] | EC50 [10] [nM] | EC50 [11] [µg/mL] | EC50 [13] [nM] | EC50 [14] | EC50 [15] [nM] | EC50 [17] [nM] | EC50 [18] [µg/mL] | Kd [19] [nM] | koff [19] [s⁻¹] | kon [19] [M⁻¹ s⁻¹] | Kd [20] [nM] | koff [20] [s⁻¹] | kon [20] [M⁻¹ s⁻¹] | also measured
B1 | 11.6 | 4570 | 0.935 µg/mL and 9.35 nM | 0.125 µg/mL and 1.25 nM | 2.25 µg/mL and 22.5 nM | 0.034 | 0.24 nM and 0.0242 µg/mL | 0.476 | 0.457 | 0.128 | 0.476 nM and 0.0476 µg/mL | 340 | 1060 | 0.106 | 19.4 | 0.000664 | 34200 | 29.6 | 0.00086 | 29000 | EC50 [1]: 26.2 nM; EC50 [5]: 2.3 nM; EC50 [12]: 2.62 nM; EC50 [16]: 3.18 nM; Kd [21]: 60 nM; Kd [22]: 20.1 nM; koff [22]: 0.000551 s⁻¹; kon [22]: 26700 M⁻¹ s⁻¹; EC50 [23]: 0.0126 µg/mL and 0.126 nM
B2 | 10.4 | 4670 | 0.763 µg/mL and 7.63 nM | 0.122 µg/mL and 1.22 nM | 2.08 µg/mL | 0.0268 | 0.16 nM and 0.0162 µg/mL | 0.228 | 0.467 | 0.139 | 0.311 nM and 0.0311 µg/mL | 270 | 1150 | 0.115 | 26.3 | 0.000153 | 5790 | 1.59 | 0.000192 | 121000 | Kd [24]: 0.00897 nM; koff [24]: 3.88e-05 s⁻¹; kon [24]: 4.32e+06 M⁻¹ s⁻¹; Kd [25]: 2.28 nM; koff [25]: 3.44e-05 s⁻¹; kon [25]: 15100 M⁻¹ s⁻¹; Kd [26]: 0.0093 nM; koff [26]: 0.000105 s⁻¹; kon [26]: 1.13e+07 M⁻¹ s⁻¹; EC50 [27]: 7.91 nM; EC50 [28]: 1.13 nM; EC50 [29]: 2.79 nM; Kd [21]: 22.3 nM; koff [22]: 0.00047 s⁻¹; kon [22]: 48200 M⁻¹ s⁻¹; EC50 [23]: 0.00927 µg/mL and 0.093 nM

Reference: patent US20250002557A1 (SUZHOU LIGHT FERRY BIOMED, published 2025)
